Article PMC2765987 (2009)
Changes are numbered by the printed parent chain. No constants are given. Whether binding was seen depends on the method and setting. In cells and extracts the contact can be indirect. Some entries that bind do so weakly or less than the wild type. For part of these data: Sequences can lack the tags named with a protein.

Experiments:
[1] = molecular target: T1, FLAG-tagged full length PP6R3 mutant D113R (human) (UniProt Q5H9R7); assay: co-IP; FLAG-tagged PP6R3 wild type and charge-reversal mutants expressed in HEK293 cells, precipitated with immobilised anti-FLAG antibody; co-precipitated endogenous PP6c quantified by fluorescent immunoblotting, normalised to FLAG staining, wild type set as 100; 3 independent experiments
T1 sequence: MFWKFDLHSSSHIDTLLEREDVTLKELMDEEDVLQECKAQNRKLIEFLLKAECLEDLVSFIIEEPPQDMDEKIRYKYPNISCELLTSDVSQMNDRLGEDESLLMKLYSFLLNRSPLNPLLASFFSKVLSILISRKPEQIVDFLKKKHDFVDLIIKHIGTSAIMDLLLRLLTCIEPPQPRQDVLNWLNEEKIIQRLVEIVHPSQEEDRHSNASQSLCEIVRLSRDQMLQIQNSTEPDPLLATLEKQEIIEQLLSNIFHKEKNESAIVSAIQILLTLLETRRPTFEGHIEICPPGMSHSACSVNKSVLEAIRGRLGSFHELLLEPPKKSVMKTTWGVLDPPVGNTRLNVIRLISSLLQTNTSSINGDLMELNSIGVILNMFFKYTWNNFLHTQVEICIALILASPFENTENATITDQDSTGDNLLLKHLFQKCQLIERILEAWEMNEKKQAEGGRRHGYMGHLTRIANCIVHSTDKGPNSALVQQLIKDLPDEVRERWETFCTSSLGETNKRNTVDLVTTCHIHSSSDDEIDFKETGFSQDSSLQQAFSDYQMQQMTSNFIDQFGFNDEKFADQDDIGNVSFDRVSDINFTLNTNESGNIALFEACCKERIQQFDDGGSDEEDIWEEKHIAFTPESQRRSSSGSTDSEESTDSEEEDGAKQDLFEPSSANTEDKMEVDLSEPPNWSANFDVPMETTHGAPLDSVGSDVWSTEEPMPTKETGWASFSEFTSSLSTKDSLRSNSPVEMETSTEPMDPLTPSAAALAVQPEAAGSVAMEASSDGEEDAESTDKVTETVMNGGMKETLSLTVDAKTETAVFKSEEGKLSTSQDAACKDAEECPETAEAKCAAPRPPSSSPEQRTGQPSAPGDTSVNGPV

[2] = molecular target: T2, FLAG-tagged full length PP6R3 mutant E259-262K (human) (UniProt Q5H9R7); assay: as above
T2 sequence: T1 sequence with R113D, E259K, E262K

[3] = molecular target: T3, FLAG-tagged full length PP6R3 mutant E204-205K (human) (UniProt Q5H9R7); assay: as above
T3 sequence: T1 sequence with R113D, E204K, E205K

[4] = molecular target: T4, FLAG-tagged PP6R3 (full-length, residues 1-873) (human) (UniProt Q5H9R7); assay: as above
T4 sequence: T1 sequence with R113D

[5] = molecular target: T5, PP6R3, endogenous SAPS domain regulatory subunit of PP6 (human (endogenous in HEK293, HeLa, HepG2, Jurkat)) (UniProt Q5H9R7); assay: co-IP; co-precipitation from extracts of HeLa, Jurkat and HepG2 cells (not shown)
T5 sequence: T1 sequence with R113D

[6] = molecular target: T4, FLAG-tagged PP6R3 (full-length, residues 1-873) (human); assay: co-IP; FLAG-tagged PP6R3 and fragments expressed in HEK293 cells, precipitated with anti-FLAG (M2) beads; endogenous PP6c detected by immunoblotting
[7] = molecular target: T6, FLAG-tagged PP6R3 SAPS region (residues 1-513) (human) (UniProt Q5H9R7); assay: as above
T6 sequence: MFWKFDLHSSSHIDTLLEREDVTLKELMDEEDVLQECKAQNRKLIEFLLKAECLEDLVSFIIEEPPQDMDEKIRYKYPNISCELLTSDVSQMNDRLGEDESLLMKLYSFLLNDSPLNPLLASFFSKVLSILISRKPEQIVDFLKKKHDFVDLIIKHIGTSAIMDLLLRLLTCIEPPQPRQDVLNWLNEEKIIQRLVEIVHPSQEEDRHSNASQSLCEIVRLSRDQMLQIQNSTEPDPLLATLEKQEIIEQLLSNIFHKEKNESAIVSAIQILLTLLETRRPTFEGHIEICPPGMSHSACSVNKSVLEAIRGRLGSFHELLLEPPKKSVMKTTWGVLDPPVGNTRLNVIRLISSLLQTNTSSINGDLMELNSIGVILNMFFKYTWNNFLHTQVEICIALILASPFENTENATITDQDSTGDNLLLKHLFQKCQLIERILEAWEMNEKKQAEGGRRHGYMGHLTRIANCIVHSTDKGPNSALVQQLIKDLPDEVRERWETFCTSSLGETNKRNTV

[8] = molecular target: T7, FLAG-tagged PP6R3 truncated SAPS region (1-355) (human) (UniProt Q5H9R7); assay: as above
T7 sequence: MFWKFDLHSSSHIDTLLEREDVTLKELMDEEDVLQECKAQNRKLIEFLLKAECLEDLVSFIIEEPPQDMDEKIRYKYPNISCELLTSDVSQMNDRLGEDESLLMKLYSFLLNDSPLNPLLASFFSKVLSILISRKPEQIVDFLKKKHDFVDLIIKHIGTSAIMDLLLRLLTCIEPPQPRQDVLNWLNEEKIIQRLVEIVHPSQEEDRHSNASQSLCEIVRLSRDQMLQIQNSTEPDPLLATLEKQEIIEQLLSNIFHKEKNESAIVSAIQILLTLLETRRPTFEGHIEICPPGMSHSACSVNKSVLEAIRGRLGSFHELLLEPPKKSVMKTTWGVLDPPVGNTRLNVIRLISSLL

[9] = molecular target: T5, PP6R3, endogenous SAPS domain regulatory subunit of PP6 (human (endogenous in HEK293, HeLa, HepG2, Jurkat)); assay: co-IP; endogenous PP6R3 precipitated from cell extracts with immobilised sheep anti-PP6R3 antibody, overnight at 4°C, lysis buffer with 1% NP-40 and 150 mM NaCl; PP6c detected by immunoblotting; two rounds of immunoprecipitation for depletion

binding [1]: binds
binding [2]: binds
binding [3]: binds
binding [4]: binds
binding [5]: binds
binding [6]: binds
binding [7]: binds
binding [8]: no binding
binding [9]: binds
B1: PP6 catalytic subunit, endogenous (enzyme, UniProt O00743 1-305)
chain: MAPLDLDKYVEIARLCKYLPENDLKRLCDYVCDLLLEESNVQPVSTPVTVCGDIHGQFYDLCELFRTGGQVPDTNYIFMGDFVDRGYYSLETFTYLLALKAKWPDRITLLRGNHESRQITQVYGFYDECQTKYGNANAWRYCTKVFDMLTVAALIDEQILCVHGGLSPDIKTLDQIRTIERNQEIPHKGAFCDLVWSDPEDVDTWAISPRGAGWLFGAKVTNEFVHINNLKLICRAHQLVHEGYKFMFDEKLVTVWSAPNYCYRCGNIASIMVFKDVNTREPKLFRAVPDSERVIPPRTTTPYFL
